Among all 410,000 compounds or so, about 7,200 (1.8%) were called active. Inconclusive results, whose numbers are uncertain, are shown with a selection of clear calls. Calls follow the shape of the dose curve; as a rule, active = well fitted activation curve with a large enough effect; inconclusive = small, poorly fitted or top-dose-only effect, or another doubt; inactive = no such curve, though single readings can be large or run the other way. Where the call is inconclusive, the potency comes from a doubtful curve fit.
assay: qHTS of TDP-43 Inhibitors; settings: TDP-43 expressing yeast growth rescue, BacTiter-Glo, 24 h; series mostly up to 46.1 µM; also: nearly all actives have a fitted effect of over 50% in size
How it was run: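 Galactose-induced TDP-43 yeast, OD600=0.02, compound pinned; 24 hr, 30 deg C; BacTiter-Glo luminescence for growth. Inhibitors of TDP-43 toxicity read as activators.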
Potency is read from the fitted curve at half-maximal effect; tags tell the direction and shape of the fitted curve.

Potency, active:
CCc1cc(=O)oc2c3c(cc(OCC(=O)NCc4ccco4)c12)OC(C)(C)CC3 35.5 µM, COC(=O)Oc1c(Br)c(=O)oc2ccccc12 3.55 µM, O=S(=O)(Nc1ccc(Cl)cn1)c1ccc(Cl)cc1 11.2 µM, CCn1c(SCC(=O)Nc2nc(-c3ccccc3)cs2)nnc1-c1ccccc1O 20 µM, CC(=O)c1cccc(NC(=O)C2(C)Cc3c(-c4ccccc4)ccnc3O2)c1 (configuration not stated) 20 µM, O=C(Oc1ccc(C(=S)N2CCOCC2)cc1)c1cccc(Cl)c1 12.6 µM, COc1ccc(OC)c(CCNC(=O)c2c(C)oc3ncn(CC(C)C)c(=O)c23)c1 25.1 µM, CNc1nc(-c2ccccc2)[n+](-c2ccc(C)cc2)s1 14.1 µM

Potency, inconclusive:
Cc1ccc(Nc2c(-c3ccccn3)nc3ccc(Br)cn23)cc1 3.16 µM [activator, partial curve], Cc1c(C(=O)N2CCN(c3ccc(C(F)(F)F)cn3)CC2)oc2ccccc12 14.1 µM [activator, single point], CC1CC(C)CN(c2ncnc3c2cnn3Cc2ccc(Cl)cc2)C1 (configuration not stated) 35.5 µM [activator, single point], C[C@H](NC(=O)N1CCn2c1nc1ccccc12)C(=O)N1CCCCC1 35.5 µM [activator, single point], COc1ccc(C(=O)c2ccccc2O)c(O)c1 12.6 µM [activator, single point], Cc1nc(C)c(C(=O)Nc2ccc(Oc3ccccc3)cc2)o1 12.6 µM [activator, single point], COC(=O)c1ccccc1CSc1nsc(C)c1C#N 11.2 µM [activator, partial curve], COc1c(Cl)cc(C(=O)Nc2cc(-c3nc4ccccc4[nH]3)ccc2C)cc1Cl 35.5 µM [activator, single point], Cc1ccc(NC(=O)CCC(=O)OCc2ccc(Br)cc2)cc1 1.78 µM [activator, partial curve], CC(C)(C)NC(=O)c1ccc(Sc2ccccc2)c([N+](=O)[O-])c1 35.5 µM [activator, single point], Cc1csc(NC(=O)c2c(-c3ccccc3)noc2C)n1 11.2 µM [activator, single point], CCN1CCc2c(OCc3ccc(C(=O)OC)o3)cccc2C1=O 14.1 µM [activator, partial curve], Cn1c(=O)c2c(ncn2CCOc2ccc(Br)cc2)n(C)c1=O 14.1 µM [activator, single point], Cc1ccc(OC(=O)N(C)C[C@@H]2OCc3cn(nn3)CCCC(=O)N([C@@H](C)CO)C[C@H]2C)cc1 1.12 µM [activator, partial curve], CCCNC(=O)c1ccc(Cl)c(Cl)c1 22.4 µM [activator, partial curve], CCn1nccc1C(=O)Nc1cc(Cl)ccc1Cl 10 µM [activator, partial curve], COc1cc(/C=C2/C(=N)N3C=CSC3=NC2=O)ccc1OCCCOc1c(C)cccc1C 11.2 µM [activator, single point], O=C(CSc1nc2ccccc2s1)Nc1ccc(Cl)c(S(=O)(=O)N2CCOCC2)c1 35.5 µM [activator, single point], O=C(CSc1nnc(C2COc3ccccc3O2)o1)Nc1nccs1 (configuration not stated) 15.8 µM [activator, single point], CC(NC(=O)c1ccc2c(c1)OCO2)c1cccc(C(F)(F)F)c1 (configuration not stated) 35.5 µM [activator, single point], CC(C)(C)c1nn(-c2ccccc2)c2[nH]c(=O)c(C=O)cc12 5.01 µM [activator, single point], CCOc1ccc(N2CC(NC(=O)c3ccc4c(c3)OCO4)CC2=O)cc1 (configuration not stated) 6.31 µM [activator, partial curve, poor fit], Cc1cc(F)ccc1S(=O)(=O)N(C(=O)c1ccncc1)c1ccc(OC(=O)c2ccncc2)cc1 31.6 µM [activator, single point], CCOCCc1nnc(NC(=O)C(=O)c2cc(C)n(-c3ccc(C)c(C)c3)c2C)s1 11.2 µM [activator, partial curve, poor fit], Clc1ccc(Cc2ccc(SCc3ccccc3)nn2)c(Cl)c1 5.62 µM [activator, partial curve], COc1ccc(NC(=O)COC(=O)c2ccc([N+](=O)[O-])o2)cc1Cl 31.6 µM [activator, single point], O=C1CCC[C@@H]2C=C[C@H](c3ccc(Br)cc3)[C@H]3CCN1[C@@H]32 11.2 µM [activator, partial curve], Cc1ccc(N2CCN(S(=O)(=O)c3nnc(NC(=O)c4ccccc4)s3)CC2)cc1 8.91 µM [activator, partial curve, poor fit], CCCc1ccc(OCc2ccc(C(=O)N3CCSCC3)o2)cc1 15.8 µM [activator, single point], Cc1cccc(N2CCN(C(=O)c3ccc4c(c3)OCCO4)CC2)c1C 14.1 µM [activator, single point], CS(=O)(=O)N1CCN(c2ccccc2NC(=O)c2cc3ccccc3o2)CC1 28.2 µM [activator, single point], CC(OC(=O)c1ccc(O)cc1)C(=O)Nc1nc(-c2ccccc2)cs1 (configuration not stated) 35.5 µM [activator, partial curve, poor fit], Cc1cc(Cl)ccc1OCCCC(=O)N1CCN(C(=O)c2ccco2)CC1 17.8 µM [activator, single point], CCOC(=O)c1cccc(OS(=O)(=O)Cc2ccccc2)c1 10 µM [activator, partial curve], Cc1cc(C(=O)OCCN2C(=O)c3ccccc3C2=O)c2ccccc2n1 31.6 µM [activator, single point], O=C(COC(=O)C1(c2ccc(F)cc2)CCCC1)NCc1ccc2c(c1)OCO2 31.6 µM [activator, single point], COc1cccc(N2CCN(C(=O)c3cccc(NC(=O)C4=C(C)OCCS4)c3)CC2)c1 15.8 µM [activator, partial curve], Cc1sc2nc(-c3cccnc3)[nH]c(=O)c2c1-c1ccccc1 11.2 µM [activator, partial curve], CCOC(=O)N1CCC(N2C(=O)c3ccccc3C2Nc2ccc(Cl)cn2)CC1 (configuration not stated) 25.1 µM [activator, partial curve], CCC(CC)C(=O)N1c2ccccc2C(C)(c2ccccc2)CC1(C)C (configuration not stated) 35.5 µM [activator, partial curve], CCCCc1ccc(-n2nc3ccc(NC(=O)c4cc5ccccc5o4)cc3n2)cc1 25.1 µM [activator, partial curve], COc1cccc(CNC(=O)c2c(C)nn(-c3ccc(F)cc3)c2-n2cccc2)c1 35.5 µM [activator, partial curve], COc1cccc(/C=N/NC(=O)c2ccncc2)c1OC(=O)c1ccc(Br)cc1 31.6 µM [activator, single point], CCOC(=O)c1sc2ccccc2c1S(=O)(=O)Nc1ccc(OC)c(Cl)c1 11.2 µM [activator, partial curve], O=[N+]([O-])c1ccc(Nc2nc(N/N=C/c3cccc(F)c3)nc(N3CCCC3)n2)cc1 12.6 µM [activator, partial curve], N/C(=N\OC(=O)CC1CCCCC1)c1cccc([N+](=O)[O-])c1 22.4 µM [activator, single point], CC(=O)c1cccc(NC(=O)c2nc(-c3ccccc3)oc2C)c1 22.4 µM [activator, single point], CNC(=O)c1ccc(-c2ccc(Cl)c(Cl)c2)s1 10 µM [activator, partial curve]

Potency, inactive:
CCC(=O)N1CCc2cc(S(=O)(=O)NC(Cc3ccccc3)C(=O)NCc3ccccc3)ccc21 (configuration not stated), CCOC(=O)c1cc(-c2ccc(/C=C3/C(=O)NC(=O)C(C#N)=C3C)o2)ccc1Cl, CCc1nc2c(OCC(=O)c3ccc(Cl)cc3Cl)cccn2c1N(C)C(=O)c1ccncc1, COc1ccc(-c2nn(CCC(=O)O)cc2/C=N/NC(N)=S)cc1, CCCCNC(=O)CCCCCn1c(=O)[nH]c2cc(OC)c(OC)cc2c1=O, CCOc1ccccc1N1CC(C(=O)Nc2nccs2)CC1=O (configuration not stated), COc1ccc(OC)c(NC(=O)c2ccc(Cl)cc2)c1, Cc1ccc(N2CC(NC(=O)c3ccc(S(=O)(=O)N(C)C)cc3)CC2=O)cc1C (configuration not stated), COc1cc(NC(=O)Nc2ccc3c(c2)OCO3)cc(OC)c1OC, COc1ccc(-c2c(-c3ccsc3)oc(=O)c3cc(OC)c(OC)cc23)cc1, NC(=O)c1cccc(-c2ccnc3c2CC(C(=O)Nc2cccc(C(F)(F)F)c2)O3)c1 (configuration not stated)
